Data as given in the supplement of paper PMC3334620.
The full ranking holds about 33,000 sequences; the median of “E-score (-0.5 to 0.5)” is about -0.011, and the highest 2% start at about 0.28. Some of the results follow.

molecular target: T1, Gcr1 (UniProt P07261); assay: PBM E-score (8-mer binding enrichment) (E-score (-0.5 to 0.5)); higher = stronger / more preferred TF binding; most listed sequences are background and not binding sites; conditions: protein concentration: 100 nM; construct: GST-full length
T1 sequence: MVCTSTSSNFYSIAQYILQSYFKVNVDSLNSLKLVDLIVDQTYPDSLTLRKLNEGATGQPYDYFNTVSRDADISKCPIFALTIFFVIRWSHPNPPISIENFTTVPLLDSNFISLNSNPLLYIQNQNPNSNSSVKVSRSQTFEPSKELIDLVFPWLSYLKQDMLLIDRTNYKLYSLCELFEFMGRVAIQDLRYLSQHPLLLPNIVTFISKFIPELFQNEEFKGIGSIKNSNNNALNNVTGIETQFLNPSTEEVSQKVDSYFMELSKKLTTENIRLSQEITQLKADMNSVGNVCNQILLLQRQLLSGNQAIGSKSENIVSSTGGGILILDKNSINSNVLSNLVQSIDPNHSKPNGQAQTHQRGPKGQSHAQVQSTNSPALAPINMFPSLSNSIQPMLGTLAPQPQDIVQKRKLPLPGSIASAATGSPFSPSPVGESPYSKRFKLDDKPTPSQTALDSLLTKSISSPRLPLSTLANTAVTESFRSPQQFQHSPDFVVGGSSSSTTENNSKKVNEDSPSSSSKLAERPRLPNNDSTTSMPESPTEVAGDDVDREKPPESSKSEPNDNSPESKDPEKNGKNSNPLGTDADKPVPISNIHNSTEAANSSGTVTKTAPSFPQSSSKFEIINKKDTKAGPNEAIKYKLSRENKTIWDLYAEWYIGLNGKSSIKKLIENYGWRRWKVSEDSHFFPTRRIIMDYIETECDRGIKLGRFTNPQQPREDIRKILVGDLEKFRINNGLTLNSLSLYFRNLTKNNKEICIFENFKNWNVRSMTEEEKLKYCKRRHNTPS
In short: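 Bound GST-tagged yeast transcription factors, applied at about 100-200 nM to double-stranded universal all-10-mer Agilent arrays, were detected with fluorescent anti-GST. Scans were normalised with masliner. A modified Wilcoxon-Mann-Whitney statistic, the E-score, was assigned to each ungapped eight-base word pooled with its reverse complement by the Universal PBM Analysis Suite.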

Row | Sequence | PBM E-score
1 | ATAAGGGC | -0.11
2 | ATCACCAC | -0.102
3 | CACCGCTC | 0.00387
4 | GTCGAACA | 0.0829
5 | ACTTTGAA | -0.121
6 | CAGTAGTC | 0.00525
7 | ACAGAACT | -0.0122
8 | AACGATGG | -0.184
9 | ACCCTGAT | 0.05
10 | AGATGAGA | -0.055
11 | CTGATATC | 0.0702
12 | AATCTAAA | 0.00538
13 | GCGGAAAA | 0.0127
14 | AAGACAAC | -0.247
15 | GCAAGGAC | -0.302
16 | GCACCTGA | 0.0656
17 | ATTTGACC | -0.059
18 | ACACAGTA | 0.0108
19 | AAGTCTAG | 0.0248
20 | ACCATGAC | -0.0943
21 | ATTGAACA | 0.0317
22 | ATACCCAG | 0.137
23 | CCCGAGAA | 0.199
24 | AGGTGACG | -0.0858
25 | AAGAGTCG | -0.00583

Row | Sequence | PBM E-score
26 | ATATAACG | -0.174
27 | CGTACGGC | -0.0842
28 | CAATATAA | 0.0242
29 | TGCGAGCA | 0.126
30 | CGTGTAGA | 0.128
31 | CACGTCAC | -0.00164
32 | GGGATCCA | 0.347
33 | CGGCCAGA | 0.0223
34 | ACTGTATG | -0.0177
35 | GGTGACTA | -0.122
36 | AACCCATT | 0.179
37 | CCTGATGC | -0.033
38 | ACGGCTAG | -0.0903
39 | CCTCTATA | 0.266
40 | ACGAAAAA | 0.124
41 | CCCCGCAG | 0.0653
42 | AAAGCTAG | -0.153
43 | CTCGAGGC | -0.00152
44 | CGGCTAAG | -0.117
45 | CCGGCACG | 0.117
46 | GGGTCCCA | 0.24
47 | CGCAGGCC | -0.201
48 | GAAACGGA | 0.102
49 | GGCCACAA | 0.176
50 | CGAAGCCC | 0.268

Row | Sequence | PBM E-score
51 | AAGCAGTG | -0.14
52 | ATATGAGG | 0.033
53 | ATTGTCGC | -0.0817
54 | CGCGCGTC | 0.122
55 | CGCAGCGA | 0.22
56 | CTAAGCTA | -0.202
57 | AAGTCACC | -0.11
58 | CTTCCTCC | 0.189
59 | AGGTTCAG | -0.265
60 | CTTAAAAA | 0.199
61 | AACGCGTG | 0.139
62 | GGAGCTGA | 0.068
63 | ACTGCTCC | -0.115
64 | AGTCGGGC | -0.0557
65 | ACCAACCC | -0.294
66 | CGCTCCCG | 0.0567
67 | CTGTGCCA | -0.106
68 | CATGGACG | 0.0664
69 | CGCGCCGC | 0.193
70 | AGAATTAT | 0.0729
71 | ACAGCTGA | -0.195
72 | ACGTCGGA | -0.0789
73 | CGAAATCG | -0.0258
74 | CTGAACAA | 0.0728
75 | CTTAGATC | 0.0158

Row | Sequence | PBM E-score
76 | GGATCGGA | -0.0291
77 | GAATGGAA | 0.225
78 | TGCAAGAA | 0.152
79 | CCTCCGAG | -0.26
80 | CCAGAGGA | 0.101
81 | AAATCAGG | 0.129
82 | ACACGAGG | -0.00485
83 | CCGAACGC | 0.149
84 | GATGGTCA | -0.0592
85 | AAGGGTAA | -0.0838
86 | ATATAAGC | 0.121
87 | TAATGGGA | 0.108
88 | ACATGCTC | -0.0853
89 | TAGCAGCA | 0.136
90 | CCGACGCG | 0.0251
91 | TCATCCGA | -0.166
92 | ACGATATA | 0.0445
93 | CACAGAAG | 0.0109
94 | CCTCCAAC | -0.0666
95 | GGCAAAAC | -0.0284
96 | CACGAAAC | -0.073
97 | CCGTGCCA | -0.0133
98 | GCTGGTGA | -0.0692
99 | CCTAAGCG | -0.102
100 | GCGACCTA | 0.116

Row | Sequence | PBM E-score
101 | AGGACAAC | -0.0833
102 | GCAATACC | -0.0958
103 | TCTATTAA | 0.185
104 | AGTCCAAG | -0.147
105 | GGAAAGAC | -0.105
106 | GAAATTTA | -0.1
107 | ATAAAAGG | 0.126
108 | CTACTACA | 0.137
109 | GAATTATA | 0.192
110 | ACTATGAG | -0.239
111 | CGATTGAG | -0.208
112 | CAACAGTG | 0.0107
113 | ACACCCCA | 0.00448
114 | ATCCTCCA | -0.0323
115 | TCTGTTCA | 0.00349
116 | CTATAGGA | 0.0459
117 | ACGACTAC | -0.176
118 | GCTGTGAC | -0.186
119 | ACCACGGC | -0.0133
120 | CGTTCGAG | -0.0773
121 | AGGAGTCA | -0.0283
122 | CGACGACA | 0.0156
123 | GGAAGAAC | -0.156
124 | AATGTCGA | 0.144
125 | AGTGTCGA | -0.106

Row | Sequence | PBM E-score
126 | GCATTGTA | -0.0559
127 | GACTTATA | 0.0402
128 | ATCTCGGA | 0.0205
129 | ACACTACG | -0.104
130 | CAATTGTC | -0.307
131 | ACCCACGG | -0.122
132 | AGGTTGTA | -0.0436
133 | CCGCCTCG | 0.0287
134 | ACGTGGCA | -0.0193
135 | AAATGCGA | 0.224
136 | TTCATAAA | 0.0264
137 | GGCGACGA | 0.0858
138 | CGGGCTTC | 0.415
139 | ACAGGAAC | 0.144
140 | CACGAGTG | -0.109
141 | GAAATAAC | 0.0241
142 | AACAGTGC | -0.142
143 | GAGACAAA | -0.101
144 | CTTAATAA | 0.224
145 | ACGGCTAA | 0.00728
146 | GCAGTCGA | -0.026
147 | CGCGCCCA | 0.244
148 | TAACTTAA | 0.0035
149 | TATCAACA | 0.0417
150 | GGCGGTGA | -0.113

Row | Sequence | PBM E-score
151 | ACCTTTAC | 0.0646
152 | CTCAAAGA | 0.0324
153 | ATATGCAT | -0.0625
154 | GTATAGTA | -0.141
155 | CAGGTCCC | 0.0086
156 | AGCACATG | -0.0122
157 | AGAGTGTC | -0.0239
158 | ACAGAAAG | -0.135
159 | CAAGGACA | -0.161
160 | AACAACAG | -0.236
161 | ATATCTTG | 0.0748
162 | GGGCACTA | -0.00334
163 | ACTATAAA | 0.0982
164 | AATCGACG | -0.231
165 | GAATATAC | -0.236
166 | CGATTGGA | 0.135
167 | GTCGTCAA | 0.149
168 | AGTTCAGC | -0.0738
169 | ATGAAGTA | -0.106
170 | TAAAAATA | 0.24
171 | AATCTCGT | 0.00556
172 | CCTCACAA | -0.0108
